# Measurements taken from the supplement of paper PMC8728848.
# The other results are listed elsewhere or left out.
# B1: Cohesin-marm-DC-ASGPR (protein)
# chain: LDITSHHHHHHDDLDAVRIKVDTVNAKPGDTVRIPVRFSGIPSKGIANCDFVYSYDPNVLEIIEIEPGDIIVDPNPDKSFDTAVYPDRKIIVFLFAEDSGTGAYAITKDGVFATIVAKVKEGAPNGLSVIKFVEVGGFANNDLVEQKTQFFDGGVNVGDTTEPATPTTPVTTPTTTDDLDAASSKFQRDLVTLRTDFSNFTSNTLAEIQALTSQGSSLQETIASLKAEVEGHKQELQAGASELQEHNKQKAHLGRCPHTCVCPSSFVCVPVHSEILLRVQQLVQDLNKLSCQVAILKNNATTERTCCPINWVEHQGSCYWFSRSGKTWPEAERYCQLENTHLVVINSREEQNFVQAHLGSAYTWMGLSDPEGVWKWVDGTDYSSGFQNWKPGQPDDWQGHGLGGGEDCAHFHPDGRWNDDVCQRSYHWVCEAGLTQASQDSHAS
# What was measured:
# Experiment in all cases: glycan array binding signal (z-score within array); higher = stronger binding
# Conditions in all cases: glycan notation: IUPAC condensed, linker removed
# [1] = biological target: Gal(b1-4)GlcNAc(b1-6)GalNAc
# In short: (§1)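 Negative Z-scores can be read as non-binding. The Z-score is calculated within each array and then averaged across arrays of one protein sequence at different concentrations or buffers and across linkers. Arrays, 3228 in all, were curated from the Consortium for Functional Glycomics database and kept only where the protein sequence was available.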
# [2] = biological target: Gal(b1-4)GlcNAc(b1-6)[Gal(b1-3)]GalNAc
# In short: as §1
# [3] = biological target: Gal(b1-4)GlcNAc(b1-6)[Gal(b1-4)GlcNAc(b1-3)]GalNAc
# In short: as §1
# Gal(b1-4)GlcNAc6P = biological target: Gal(b1-4)GlcNAc6P
# In short: as §1
# Gal(b1-6)Gal = biological target: Gal(b1-6)Gal
# In short: as §1
# Gal3S(b1-3)GalNAc = biological target: Gal3S(b1-3)GalNAc
# In short: as §1
# Gal3S(b1-3)GlcNAc = biological target: Gal3S(b1-3)GlcNAc
# In short: as §1
# [4] = biological target: Gal3S(b1-3)[Fuc(a1-4)]GlcNAc
# In short: as §1
# Gal3S(b1-4)Glc = biological target: Gal3S(b1-4)Glc
# In short: as §1
# Gal3S(b1-4)Glc6S = biological target: Gal3S(b1-4)Glc6S
# In short: as §1
# Gal3S(b1-4)GlcNAc = biological target: Gal3S(b1-4)GlcNAc
# In short: as §1
# [5] = biological target: Gal3S(b1-4)[Fuc(a1-3)]Glc6S
# In short: as §1
# [6] = biological target: Gal3S(b1-4)[Fuc(a1-3)]GlcNAc
# In short: as §1
# [7] = biological target: Gal3S(b1-4)[Fuc(a1-3)]GlcNAc6S
# In short: as §1
# Gal3S4S(b1-4)GlcNAc = biological target: Gal3S4S(b1-4)GlcNAc
# In short: as §1
# Gal3S6S(b1-4)GlcNAc = biological target: Gal3S6S(b1-4)GlcNAc
# In short: as §1
# Gal3S6S(b1-4)GlcNAc6S = biological target: Gal3S6S(b1-4)GlcNAc6S
# In short: as §1
# Gal4S(b1-4)GlcNAc = biological target: Gal4S(b1-4)GlcNAc
# In short: as §1
# Gal4S6S(b1-4)GlcNAc = biological target: Gal4S6S(b1-4)GlcNAc
# In short: as §1
# Gal6P(b1-4)GlcNAc = biological target: Gal6P(b1-4)GlcNAc
# In short: as §1
# Gal6S(b1-3)GlcNAc = biological target: Gal6S(b1-3)GlcNAc
# In short: as §1
# Gal6S(b1-3)GlcNAc6S = biological target: Gal6S(b1-3)GlcNAc6S
# In short: as §1
# Gal6S(b1-4)Glc = biological target: Gal6S(b1-4)Glc
# In short: as §1
# Gal6S(b1-4)Glc6S = biological target: Gal6S(b1-4)Glc6S
# In short: as §1
# Gal6S(b1-4)GlcNAc = biological target: Gal6S(b1-4)GlcNAc
# In short: as §1
# Gal6S(b1-4)GlcNAc6S = biological target: Gal6S(b1-4)GlcNAc6S
# In short: as §1
# GalNAc(a1-3)Gal = biological target: GalNAc(a1-3)Gal
# In short: as §1
# GalNAc(a1-3)GalNAc = biological target: GalNAc(a1-3)GalNAc
# In short: as §1
# [8] = biological target: GalNAc(a1-3)GalNAc(b1-3)Gal(a1-4)Gal(b1-4)Glc
# In short: as §1
# [9] = biological target: GalNAc(a1-3)GalNAc(b1-3)Gal(a1-4)Gal(b1-4)GlcNAc
# In short: as §1
# GalNAc(b1-3)Gal = biological target: GalNAc(b1-3)Gal
# In short: as §1
# [10] = biological target: GalNAc(b1-3)Gal(a1-4)Gal(b1-4)GlcNAc
# In short: as §1
# [11] = biological target: GalNAc(b1-3)Gal(a1-4)Gal(b1-4)GlcNAc(b1-3)Gal(b1-4)Glc
# In short: as §1
# [12] = biological target: GalNAc(b1-3)Gal(a1-6)Gal(b1-4)Glc
# In short: as §1
# GalNAc(b1-3)GalNAc = biological target: GalNAc(b1-3)GalNAc
# In short: as §1
# GalNAc(b1-3)GlcNAc = biological target: GalNAc(b1-3)GlcNAc
# In short: as §1
# GalNAc(b1-4)Gal(b1-4)Glc = biological target: GalNAc(b1-4)Gal(b1-4)Glc
# In short: as §1
# GalNAc(b1-4)GlcNAc = biological target: GalNAc(b1-4)GlcNAc
# In short: as §1
binder,measurement,setting,value
B1,glycan array binding signal (z-score),[1],2.24
same,glycan array binding signal (z-score),[2],-0.259
same,glycan array binding signal (z-score),[3],-0.293
same,glycan array binding signal (z-score),Gal(b1-4)GlcNAc6P,-0.305
same,glycan array binding signal (z-score),Gal(b1-6)Gal,-0.234
same,glycan array binding signal (z-score),Gal3S(b1-3)GalNAc,-0.274
same,glycan array binding signal (z-score),Gal3S(b1-3)GlcNAc,-0.269
same,glycan array binding signal (z-score),[4],-0.288
same,glycan array binding signal (z-score),Gal3S(b1-4)Glc,0.115
same,glycan array binding signal (z-score),Gal3S(b1-4)Glc6S,-0.141
same,glycan array binding signal (z-score),Gal3S(b1-4)GlcNAc,-0.199
same,glycan array binding signal (z-score),[5],-0.3
same,glycan array binding signal (z-score),[6],-0.294
same,glycan array binding signal (z-score),[7],-0.015
same,glycan array binding signal (z-score),Gal3S4S(b1-4)GlcNAc,-0.274
same,glycan array binding signal (z-score),Gal3S6S(b1-4)GlcNAc,-0.25
same,glycan array binding signal (z-score),Gal3S6S(b1-4)GlcNAc6S,-0.283
same,glycan array binding signal (z-score),Gal4S(b1-4)GlcNAc,-0.3
same,glycan array binding signal (z-score),Gal4S6S(b1-4)GlcNAc,-0.27
same,glycan array binding signal (z-score),Gal6P(b1-4)GlcNAc,-0.307
same,glycan array binding signal (z-score),Gal6S(b1-3)GlcNAc,-0.31
same,glycan array binding signal (z-score),Gal6S(b1-3)GlcNAc6S,-0.246
same,glycan array binding signal (z-score),Gal6S(b1-4)Glc,-0.282
same,glycan array binding signal (z-score),Gal6S(b1-4)Glc6S,-0.255
same,glycan array binding signal (z-score),Gal6S(b1-4)GlcNAc,-0.311
same,glycan array binding signal (z-score),Gal6S(b1-4)GlcNAc6S,-0.295
same,glycan array binding signal (z-score),GalNAc(a1-3)Gal,4.28
same,glycan array binding signal (z-score),GalNAc(a1-3)GalNAc,-0.266
same,glycan array binding signal (z-score),[8],-0.239
same,glycan array binding signal (z-score),[9],-0.154
same,glycan array binding signal (z-score),GalNAc(b1-3)Gal,4.04
same,glycan array binding signal (z-score),[10],4.11
same,glycan array binding signal (z-score),[11],4.05
same,glycan array binding signal (z-score),[12],2.39
same,glycan array binding signal (z-score),GalNAc(b1-3)GalNAc,-0.307
same,glycan array binding signal (z-score),GalNAc(b1-3)GlcNAc,3.78
same,glycan array binding signal (z-score),GalNAc(b1-4)Gal(b1-4)Glc,-0.227
same,glycan array binding signal (z-score),GalNAc(b1-4)GlcNAc,4.21
